Experimental data reported in PubChem BioAssay AID1508624 (National Center for Advancing Translational Sciences (NCATS), 2021).
Hit rate of the full screen: of about 48,000 compounds, about 120 (0.25%) were called active. Inconclusive results (about 4%) are left out. The call rests on the fitted dose curve; in most records, active means well fitted activation curve with a large enough effect; inconclusive means small, poorly fitted or top-dose-only effect, or another doubt; inactive means no such curve, though single readings can be large or run the other way. The list shows a part of the results.

Assay: Primary qHTS for Identification of Small Molecule Activators of Huntingtin-Antisense Promoter Activity; further: nearly all actives have a fitted effect of over 55% in size
Conditions: HEK293 HTT-AS promoter firefly luciferase reporter, 24 h; series mostly up to 57.5 µM; activity change, positive = activation: at the top concentration
Method in brief: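 HEK293 luciferase promoter-reporter cells (2,500/well) plated 24 h, then compounds added at up to 57.5 uM final for 24 h at 37 °C. Firefly luminescence by Dual-Glo, normalized to vehicle (0%) and zero RLU (-100%).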

Activity change, positive = activation, inactive:
COc1ccc(-c2nc3n(n2)C(c2ccc(OC)c(OC)c2)C(C(=O)Nc2cccnc2)=C(C)N3)cc1 (configuration not stated) -33.6%, COCCCNC(=O)c1ccc(Cn2c(=O)c3ccccc3n(Cc3c(C)cc(C)cc3C)c2=O)cc1 -15.8%, C[C@@]12C[C@@]3(O)O[C@@H](O1)[C@]1(COC(=O)c4ccccc4)[C@@H]3C[C@@]12O[C@@H]1O[C@H](CO)[C@@H](O)[C@H](O)[C@@H]1O -8.44%, CCN1CCN(C(c2ccc(SC)cc2)c2c(O)cc(C)n(CCOC)c2=O)CC1 (configuration not stated) -18.9%, CCCCN(CC)C(=O)C1CCCN(c2ncnc3onc(C)c23)C1 (configuration not stated) -26.4%, COc1ccc(CNC(=O)CS(=O)Cc2nc(-c3cccc(C)c3)oc2C)cc1 (configuration not stated) -9.59%, COc1cc(CNCCSc2nnnn2C)cc(Cl)c1OCc1ccccc1 -26.9%, Fc1ccccc1N1CCN(c2nccn3nc(-c4ccc(Br)cc4)cc23)CC1 -9.76%, Cc1ccc(S(=O)(=O)NCC2CCC(C(=O)NCCCOC(C)C)CC2)cc1 (configuration not stated) -4.95%, CCCCN(CC)CCNC(=O)c1cc2c(=O)n(CC)c3ccccc3c2s1 0.344%, CCCCNc1nc2ccccc2c2nc(-c3ccccc3)nn12 -6.52%, Cc1ccccc1NC(=O)c1oc2c(c1C)-c1nn(Cc3cccc(Cl)c3)cc1CC2 0.898%, Cc1nc(SCCOc2ccccc2F)[nH]c(=O)c1Cc1ccccc1 -3.75%, CC(C)(Oc1ccc(Br)cc1)C(=O)Nc1cc(-c2nc3ccccc3[nH]2)ccc1Cl -16%, O=C(CN1N=C(c2ccc(Cl)cc2)CCC1=O)NCCc1ccccc1 -6.29%, Cc1ccc(NC(=O)Cn2nc(Cc3ccncc3)c3ccccc3c2=O)c(Cl)c1 -14.9%, CNCc1ccccc1 -2.76%, CCc1c(C)nc2nncn2c1NCc1ccc(Cl)cc1 -43.6%, COc1ccccc1CNC(=O)CN1N=C(c2ccccc2)CCC1=O -0.933%, CCOc1ccc(NC(=O)c2oc3ccccc3c2NC(=O)c2ccc(OC)cc2OC)cc1 0.424%, N[C@@H](Cc1c[nH]c2ccc(O)cc12)C(=O)O, Cc1ccc(C)c(NC(=O)CSc2c(C)cnc3c2c(=O)n(C)c(=O)n3C)c1 -4.25%, O=C(Cn1cnc2nc3c(cc2c1=O)CCCC3)N1CCN(c2cccc(C(F)(F)F)c2)CC1 -2.58%, CCOc1ccc(OCC)c(NS(=O)(=O)c2c(C)[nH]c(=O)[nH]c2=O)c1 -7.85%, CN1C[C@@H]2C[C@H]1CN2c1cc2c(cc1F)c(=O)c(C(=O)O)cn2C1CC1 -11.4% [at 25.1 µM, percent change from vehicle, -100% = no light], CCC(=O)N1c2ccccc2CC1C(=O)N1CCN(c2cccc(OC)c2)CC1 (configuration not stated) -17.5%, CCc1ccc(NC(=O)Cn2ccn(-c3ccc(OC)cc3)c(=O)c2=O)cc1 -17.9%, Cc1ccc(N(C)C(=O)CC(C)S(=O)(=O)c2ccc3c(c2)NC(=O)CO3)cc1 (configuration not stated) -20%, COc1ccc(CCNC(=O)c2csc3c2CCCCC3)c(OC)c1 -32.3%, COc1ccc(Cn2c(C(=O)O)c(CNC3CCCC3)c3ccc(C)cc32)cc1 -12.9%, COC(=O)c1cc2oc(C)cc2n1Cc1cc(C)ccc1C 13.1%, Cc1cccc(NC(=O)CC2Nc3cccc4cccc(c34)NC2=O)c1 (configuration not stated) -19.9%, CCOc1ccc(NC(=O)CSc2nc(-c3cccc(Cl)c3)nc3c2Cc2c(CO)cnc(C)c2O3)cc1 -15.4%, Cc1ccc(C)c(NC(=O)Cn2ncc3c([nH]c4ccccc43)c2=O)c1 -15.2%, Cc1cccc(NC(=O)CSc2nc(-c3cccc(C)c3)nc3c2Cc2c(CO)cnc(C)c2O3)c1 -3.07%, CC1(C)Cc2c(c(N3CCOCC3)nc3sc(C(=O)Nc4ccc(Cl)cc4)c(N)c23)CO1 -7.83%, CCc1nc2ccc(C(=O)NCc3ccc(OC)c(OC)c3)cc2nc1CC 17.2%, Cc1ccc2c(CC(=O)Nc3cccc(C(F)(F)F)c3)coc2c1 -20.4%, Cc1ccc2c(c1)-c1onc(C(=O)N(C)c3cccc(C(F)(F)F)c3)c1CO2 -25.1%, Cc1ccccc1CNC(=O)Cn1c(C)c2cnn(-c3ccccc3)c(=O)c2c1C -13.5%, CCOC(=O)c1sc(N2C(=O)c3oc4ccccc4c(=O)c3C2c2ccc(C(C)(C)C)cc2)nc1C (configuration not stated) 0.941% [at 11.5 µM, percent change from vehicle, -100% = no light], CCCCOc1ccc(C(=O)Nc2cc(-c3ccc(C)cc3)no2)cc1 24.7%, Cc1cccn2c3c(c(=O)nc12)C(c1cccc(F)c1)CC(=O)N3 (configuration not stated) -8.94%, Cc1ccc(CNC(=O)c2ccc3c(c2)CCN3S(=O)(=O)c2ccccc2)cc1 -20.9%, CC(C)C(=O)Nc1nnc(S(=O)(=O)N(C)Cc2ccc(F)cc2)s1 -10.9%, CCOc1ccccc1NC(=O)C1CCCN(c2ncnc3onc(-c4ccc(F)cc4)c23)C1 (configuration not stated) -19.7%, COc1ccc(NC(=O)C2CCN(S(=O)(=O)c3cn(C)cn3)CC2)cc1Cl -4.71%, CC(=O)OCc1cnc(C)c2oc(=O)c(C(=O)Nc3cc(F)ccc3C)cc12 -7.69%, O=C(c1ccc([N+](=O)[O-])cc1)N(Cc1ccco1)c1ccccn1 -2.73%, NC(=O)CN1C(=O)C2(SCC(=O)N2c2cccc(F)c2)c2ccccc21 (configuration not stated) -2.47%, Cc1cc(C)cc(NC(=O)c2cn3c4c(ccc(Cl)c4c2=O)OC(C)C3)c1 (configuration not stated) -11.2%, CCCCn1c(=O)c2oc3ccccc3c2n(Cc2ccc(OC)cc2)c1=O -17.7%, COc1ccccc1CNC(=O)c1ccc(-c2nc(CS(=O)c3ccc(C)cc3)c(C)o2)cc1 (configuration not stated) -34.7%, COc1ccc(S(=O)(=O)Nc2ccc3c(c2)sc(=O)n3C)cc1Cl -38.1%, CC(C)n1nc(-c2ccc3oc(N)nc3c2)c2c(N)ncnc21 -38.1%, Cc1cc2c(cc1S(=O)(=O)CCC(=O)N(C)C1CCCCC1)OCC(=O)N2 -10.3%, COCCN(Cc1ccco1)C(=O)Cn1ncc2c([nH]c3ccccc32)c1=O -16.1%, Cc1ccc(-c2nnn3c2nc(NCCc2ccccc2)c2ccccc23)cc1 10.1%, CN(c1ncnc2c1c(-c1ccccc1)cn2-c1cccc(Cl)c1)C1CCCCC1 -8.82%, CCc1ccc(CN(Cc2ccco2)C(=O)COc2ccccc2Cl)cc1 -38.1%, Cc1cccc(-n2c(=O)c3c(c4cc(C)ccc4n3C)n(C)c2=O)c1 -15.7%, Cc1ccc(C)c(C(=O)CSc2nc(-c3ccccc3)nc3c2CCCC3)c1 1.33%
